From the supplement of paper PMC10037445
The full ranking holds about 2,900 compounds; the median of “IRF Lucia reporter activity, fold change vs agonist alone” is about 0.9, and the highest 2% start at about 2.8. The list shows a part of the results.

Columns and labels:
RAW-Dual [1] = assay: IRF Lucia reporter activity, fold change vs agonist alone; cytotoxicity flag (confluency mask): not cytotoxic; higher = enhanced IRF activity
How it was run: (§1)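 Reporter activity is given as fold change relative to agonist-alone wells. To measure it, 50 nL of library stock was pin-tooled onto RAW-Dual macrophages (50,000 cells/well, DMEM, 384-well plates), a PRR agonist followed 1 h later, and cells stayed at 37 °C, 5% CO2. Twenty hours on, supernatant was assayed for IRF (QuantiLuc luminescence) and NF-κB (QuantiBlue, 620 nm absorbance), and wells under 70% of agonist-control IncuCyte confluency in both mask sets were marked cytotoxic.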

RAW-Dual [2] = assay: IRF Lucia reporter activity, fold change vs agonist alone; higher = enhanced IRF activity; settings: agonist: MPLA (TLR4) […]
How it was run: as §1

RAW-Dual [3] = assay: IRF Lucia reporter activity, fold change vs agonist alone; cytotoxicity flag (confluency mask): cytotoxic (confluency <70% of control); higher = enhanced IRF activity
How it was run: as §1

[4] = agonist: 3'3'-cGAMP (STING) 10 ug/mL
[5] = library stock concentration (final ~1000-fold dilution): 10 mM, cytotoxicity flag (confluency mask): not cytotoxic

SMILES: Nc1nccc(Oc2ccc3c(C(=O)Nc4cccc(C(F)(F)F)c4)cccc3c2)n1 (library stock concentration (final ~1000-fold dilution): 10 mM)
- IRF Lucia reporter activity (RAW-Dual [1]; [4]): 0.452
- IRF Lucia reporter activity (RAW-Dual [1]; agonist: LPS (TLR4) 0.1 ug/mL): 0.834

SMILES: Oc1ccc(O)cc1
- IRF Lucia reporter activity (RAW-Dual [2]; [5]): 0.096

SMILES: Oc1ccc(O)cc1 (library stock concentration (final ~1000-fold dilution): 10 mM)
- IRF Lucia reporter activity (RAW-Dual [1]; [4]): 0.292
- IRF Lucia reporter activity (RAW-Dual [1]; agonist: LPS (TLR4) 0.1 ug/mL): 0.0664

SMILES: O=C(/C=C/c1ccc2ccc(C(F)(F)F)cc2n1)c1ccncc1 (library stock concentration (final ~1000-fold dilution): 10 mM)
- IRF Lucia reporter activity (RAW-Dual [3]; [4]): 0.549
- IRF Lucia reporter activity (RAW-Dual [3]; agonist: LPS (TLR4) 0.1 ug/mL): 0.291

SMILES: CN1CCN(c2cccc(Nc3nc4c(-c5ccc(S(C)(=O)=O)cc5)cccn4n3)c2)CC1 (library stock concentration (final ~1000-fold dilution): 10 mM)
- IRF Lucia reporter activity (RAW-Dual [1]; [4]): 0.0354
- IRF Lucia reporter activity (RAW-Dual [1]; agonist: LPS (TLR4) 0.1 ug/mL): 0.215

SMILES: CN1CCN(c2cccc(Nc3nc4c(-c5ccc(S(C)(=O)=O)cc5)cccn4n3)c2)CC1
- IRF Lucia reporter activity (RAW-Dual [2]; [5]): 0.367

SMILES: O.O=C(O)c1ncccc1[O-].O=C([O-])c1ncccc1[O-].[H+].[O]=[V][OH] (library stock concentration (final ~1000-fold dilution): 10 mM)
- IRF Lucia reporter activity (RAW-Dual [1]; [4]): 0.574
- IRF Lucia reporter activity (RAW-Dual [1]; agonist: LPS (TLR4) 0.1 ug/mL): 1.3

SMILES: C=C1C(=O)O[C@H]2[C@H]1CC/C(C)=C\CC[C@@]1(C)O[C@@H]21 (library stock concentration (final ~1000-fold dilution): 10 mM)
- IRF Lucia reporter activity (RAW-Dual [1]; [4]): 0.0236
- IRF Lucia reporter activity (RAW-Dual [1]; agonist: LPS (TLR4) 0.1 ug/mL): 0.0241

SMILES: CC(OCC1(c2ccccc2)CCC2(CCC(=O)N2)CN1)c1cc(C(F)(F)F)cc(C(F)(F)F)c1 (centres undefined) (library stock concentration (final ~1000-fold dilution): 10 mM)
- IRF Lucia reporter activity (RAW-Dual [3]; [4]): 0.981
- IRF Lucia reporter activity (RAW-Dual [3]; agonist: LPS (TLR4) 0.1 ug/mL): 0.747

SMILES: CC(OCC1(c2ccccc2)CCC2(CCC(=O)N2)CN1)c1cc(C(F)(F)F)cc(C(F)(F)F)c1 (centres undefined)
- IRF Lucia reporter activity (RAW-Dual [2]; library stock concentration (final ~1000-fold dilution): 10 mM, cytotoxicity flag (confluency mask): cytotoxic (confluency <70% of control)): 0.916

SMILES: N=C(N)NCCN1CCCCCCC1.O=S(=O)(O)O
- IRF Lucia reporter activity (RAW-Dual [2]; library stock concentration (final ~1000-fold dilution): 10 mM water, cytotoxicity flag (confluency mask): not cytotoxic): 1.32

SMILES: N=C(N)NCCN1CCCCCCC1.O=S(=O)(O)O (library stock concentration (final ~1000-fold dilution): 10 mM water)
- IRF Lucia reporter activity (RAW-Dual [1]; [4]): 1.05
- IRF Lucia reporter activity (RAW-Dual [1]; agonist: LPS (TLR4) 0.1 ug/mL): 0.869

SMILES: CCc1nc(C(N)=O)c(Nc2ccc(N3CCC(N4CCN(C)CC4)CC3)c(OC)c2)nc1NC1CCOCC1 (library stock concentration (final ~1000-fold dilution): 10 mM)
- IRF Lucia reporter activity (RAW-Dual [1]; [4]): 0.047
- IRF Lucia reporter activity (RAW-Dual [1]; agonist: LPS (TLR4) 0.1 ug/mL): 0.233

SMILES: CNS(=O)(=O)Nc1nccc(Cc2c(C)c3ccc(Oc4ncccn4)cc3oc2=O)c1F
- IRF Lucia reporter activity (RAW-Dual [2]; [5]): 2.22

SMILES: CNS(=O)(=O)Nc1nccc(Cc2c(C)c3ccc(Oc4ncccn4)cc3oc2=O)c1F (library stock concentration (final ~1000-fold dilution): 10 mM)
- IRF Lucia reporter activity (RAW-Dual [1]; [4]): 0.63
- IRF Lucia reporter activity (RAW-Dual [1]; agonist: LPS (TLR4) 0.1 ug/mL): 2.41

SMILES: CC1(C(=O)O)CCC2(C)CCC3(C)C(=CC(=O)C4C5(C)CCC(OC6OC(C(=O)O)C(O)C(O)C6OC6OC(C(=O)O)C(O)C(O)C6O)C(C)(C)C5CCC43C)C2C1.N.N (centres undefined)
- IRF Lucia reporter activity (RAW-Dual [2]; [5]): 0.958

SMILES: CC1(C(=O)O)CCC2(C)CCC3(C)C(=CC(=O)C4C5(C)CCC(OC6OC(C(=O)O)C(O)C(O)C6OC6OC(C(=O)O)C(O)C(O)C6O)C(C)(C)C5CCC43C)C2C1.N.N (centres undefined) (library stock concentration (final ~1000-fold dilution): 10 mM)
- IRF Lucia reporter activity (RAW-Dual [1]; [4]): 0.931
- IRF Lucia reporter activity (RAW-Dual [1]; agonist: LPS (TLR4) 0.1 ug/mL): 0.653

SMILES: COc1ccc(CC(=O)Nc2nc3c(s2)CCc2ccccc2-3)cc1OC (library stock concentration (final ~1000-fold dilution): 10 mM)
- IRF Lucia reporter activity (RAW-Dual [1]; [4]): 0.989
- IRF Lucia reporter activity (RAW-Dual [1]; agonist: LPS (TLR4) 0.1 ug/mL): 0.961

SMILES: Cl.OC1CCC(Nc2ncc3nc(Nc4c(F)cc(F)cc4F)n(C4CCOC4)c3n2)CC1 (centres undefined) (library stock concentration (final ~1000-fold dilution): 10 mM)
- IRF Lucia reporter activity (RAW-Dual [1]; [4]): 0.659
- IRF Lucia reporter activity (RAW-Dual [1]; agonist: LPS (TLR4) 0.1 ug/mL): 0.884

SMILES: O=C1c2c(O)cc(O)cc2OC(c2ccc(O)c(O)c2)C1O (centres undefined) (library stock concentration (final ~1000-fold dilution): 10 mM)
- IRF Lucia reporter activity (RAW-Dual [1]; [4]): 0.976
- IRF Lucia reporter activity (RAW-Dual [1]; agonist: LPS (TLR4) 0.1 ug/mL): 1.01

SMILES: O=C1c2c(O)cc(O)cc2OC(c2ccc(O)c(O)c2)C1O (centres undefined)
- IRF Lucia reporter activity (RAW-Dual [2]; [5]): 1.04

SMILES: FC(F)(F)c1ccc(/C=C/c2nc(COc3ccc(CCCCn4ccnn4)cc3)co2)cc1
- IRF Lucia reporter activity (RAW-Dual [2]; [5]): 1.34

SMILES: FC(F)(F)c1ccc(/C=C/c2nc(COc3ccc(CCCCn4ccnn4)cc3)co2)cc1 (library stock concentration (final ~1000-fold dilution): 10 mM)
- IRF Lucia reporter activity (RAW-Dual [1]; [4]): 1.07
- IRF Lucia reporter activity (RAW-Dual [1]; agonist: LPS (TLR4) 0.1 ug/mL): 1.43

SMILES: COc1cc2c(cc1OC)C1C(=O)c3ccc4c(c3OC1CO2)C=CC(C)(C)O4 (centres undefined) (library stock concentration (final ~1000-fold dilution): 10 mM)
- IRF Lucia reporter activity (RAW-Dual [1]; [4]): 0.496
- IRF Lucia reporter activity (RAW-Dual [1]; agonist: LPS (TLR4) 0.1 ug/mL): 1.51

SMILES: C#CCN(C)CCCOc1ccc(Cl)cc1Cl.Cl
- IRF Lucia reporter activity (RAW-Dual [2]; [5]): 1.12

SMILES: C#CCN(C)CCCOc1ccc(Cl)cc1Cl.Cl (library stock concentration (final ~1000-fold dilution): 10 mM)
- IRF Lucia reporter activity (RAW-Dual [1]; [4]): 1.06
- IRF Lucia reporter activity (RAW-Dual [1]; agonist: LPS (TLR4) 0.1 ug/mL): 1.19

SMILES: Cc1cnc(NC(=O)Nc2cc(Br)c(C)cc2OCC2CNCCO2)cn1 (centres undefined)
- IRF Lucia reporter activity (RAW-Dual [2]; [5]): 1.15
